From PubChem BioAssay AID720542 (National Center for Advancing Translational Sciences (NCATS), 2013)
Hit rate of the full screen: of about 360,000 compounds, about 740 (0.21%) were called active. Inconclusive results, whose numbers are uncertain, are shown with a selection of clear calls. Calls follow the shape of the dose curve; as a rule, active = well fitted inhibition curve with a large enough effect; inconclusive = small, poorly fitted or top-dose-only effect; inactive = no such curve, though single readings can be large or run the other way. No potency is given beside an inconclusive call; the fits are too rough.

tested on: Plasmodium falciparum AMA1 (3D7) - RON2 peptide interaction; test: qHTS for Inhibitors of AMA1-RON; Towards Development of Antimalarial Drug Lead: Primary Screen; conditions: AlphaScreen AMA1-biotinylated RON2 peptide binding; series mostly up to 58.2 µM; also: nearly all actives have a fitted effect of over 45% in size
Method in brief: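 AMA1 (3D7) with his tag at 25 nM final met compounds first, then biotinylated RON2 peptide at 25 nM; detection used donor plus acceptor beads, 10 µg/mL apiece, read by AlphaScreen after 30 min at room temperature.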
Potency is read from the fitted curve at half-maximal effect; tags tell the direction and shape of the fitted curve.

Row | Structure (SMILES) | Potency
1 | Cc1ccccc1CNc1ccc(C(CC(N)=O)NC(=O)c2ccccc2)cc1[N+](=O)[O-] (stereo not given) | inactive
2 | COCCCNC(=O)c1cc2cc([N+](=O)[O-])cc(OC)c2oc1=O | inactive
3 | CC(NC(=O)c1c(N)[nH]c(C(=O)c2ccccc2)c1-c1ccccc1Br)c1cccc2ccccc12 (stereo not given) | inactive
4 | COc1cccc(C(=O)Nc2nnc(Cc3ccc(OC)c(OC)c3)s2)c1 | inactive
5 | O=C(CNCC1CCCO1)NCc1ccco1 (stereo not given) | inactive
6 | Cc1nnc(SCC(=O)Nc2ccc(Cl)cn2)s1 | inconclusive [inhibitor, single point]
7 | CN(Cc1ccccc1)c1nccn2ccnc12 | inactive
8 | CN1/C(=C/C(=S)NC(=O)C2(C)CC2(Cl)Cl)C(C)(C)c2ccccc21 (stereo not given) | inconclusive [inhibitor, partial curve]
9 | Cc1ccc(-c2cn(CCN)c(-c3ccc(Cl)nc3)n2)cc1 | inactive
10 | CCOc1ccc(CN2CCN(C(=O)c3cccc4ccccc34)CC2)cc1 | inconclusive [inhibitor, single point]
11 | COc1cc(/C=C2\CC/C(=C\c3cc(OC)c(O)c(OC)c3)C2=O)cc(OC)c1O | inconclusive [inhibitor, partial curve]
12 | COc1ccc(Nc2cccc3ccccc23)cc1 | inconclusive [inhibitor, partial curve]
13 | COc1ccccc1C1CC(c2ccco2)=NN1c1ccccc1 (stereo not given) | inconclusive [inhibitor, single point]
14 | COc1ccc(NC(=O)CN(c2ccc([N+](=O)[O-])cc2)S(=O)(=O)c2ccccc2)c(OC)c1 | inconclusive [inhibitor, partial curve]
15 | COC(=O)c1ccc(Sc2ccccn2)c([N+](=O)[O-])c1 | inconclusive [inhibitor, partial curve]
16 | COc1ccc(NCC(=O)N/N=C(\C)c2cc3ccccc3o2)cc1 | inconclusive [inhibitor, full curve]
17 | CCOC(=O)N1CCN(C(=O)c2ccc(CSc3ccc(Cl)cc3)cc2)CC1 | inconclusive [inhibitor, full curve, poor fit]
18 | COc1ccc(OC)c(CN2C(=O)CN(S(C)(=O)=O)CC2(C)C(=O)Nc2c(C)cccc2C)c1 (stereo not given) | inactive
19 | COc1cccc(NC(=O)CN2C(=O)NC(C)(CCC(C)C)C2=O)c1 (stereo not given) | inactive
20 | CNCc1ccccc1Sc1cc(O)ccc1O | active: 11.2 µM
21 | CN(c1ccccc1)c1nc(N)c([N+](=O)[O-])c(NCc2ccco2)n1 | inconclusive [inhibitor, partial curve]
22 | CN(C)CCCN(C(=O)c1cc2cc([N+](=O)[O-])ccc2s1)c1nc2cc3c(cc2s1)OCCO3 | inconclusive [inhibitor, full curve]
23 | Cc1ccc2nc(-c3ccc(C#N)cc3)c(Cc3cccc(Cl)c3)n2c1 | inactive

Row | Structure (SMILES) | Potency
24 | Cc1ccc(S(=O)(=O)N2CCOCC2)cc1NC(=O)CNCc1cccnc1 | inconclusive [inhibitor, single point]
25 | CN(C)CCNc1ccc(CO)c2sc3ccc(O)cc3c(=O)c12 | inconclusive [inhibitor, partial curve]
26 | COc1cccc(C(NC(C)=O)c2nc(-c3csc4ccccc34)cs2)c1 (stereo not given) | inactive
27 | CC1CC(C)CN(C(=O)CNS(=O)(=O)c2ccc(Br)s2)C1 (stereo not given) | inconclusive [inhibitor, full curve, poor fit]
28 | Cc1c(C)n(C(=O)CN2CCN(c3ccccc3)CC2)c2ccccc12 | inconclusive [inhibitor, single point]
29 | Cc1ccc(F)c(NC(=O)/C(C#N)=C(\O)c2ccc(C(C)(C)C)cc2)c1 | inactive
30 | COC(=O)C1=C(C)NC(=O)/C1=C\c1cc(C)n(-c2cc(C)cc(C)c2)c1C | inconclusive [inhibitor, single point]
31 | COc1ccccc1-c1nnc(SCc2nc3ccccc3[nH]2)n1C | inactive
32 | Cc1cccc(C)c1-n1nnnc1C(c1ccnc2ccccc12)N1CCN(C/C=C/c2ccccc2)CC1 (stereo not given) | inconclusive [inhibitor, partial curve]
33 | Cc1ccccc1NS(=O)(=O)c1cc(C(=O)N2CCCC2)ccc1C | inactive
34 | CC(=NNC(=O)C(C)SC(C)C(=O)NN=C(C)c1cccnc1)c1cccnc1 (stereo not given) | inconclusive [inhibitor, single point]
35 | CCSC1=C(C#N)C(=O)n2c1cc1c2CCCC1 | inconclusive [inhibitor, partial curve]
36 | CCCOc1ccc(S(=O)(=O)N2CCN(C)CC2)c2ccccc12 | inconclusive [inhibitor, partial curve]
37 | COc1cc(-c2n[nH]c(=S)n2-c2ccccc2C(F)(F)F)cc(OC)c1OC | inactive
38 | O=C1CCCC2=C1C(c1ccccc1)C1C(=O)c3ccccc3C1=N2 (stereo not given) | inconclusive [inhibitor, single point]
39 | O=C(CSc1nc2ccc(Cl)cc2[nH]1)c1ccc2c(c1)OCO2 | inconclusive [inhibitor, single point]
40 | Cc1ccc([N+](=O)[O-])c(OCCN2CCC(Cc3ccccc3)CC2)c1 | inconclusive [inhibitor, single point]
41 | CC1Cc2ccccc2N1C(=O)c1ccc(N2CCCC2)c([N+](=O)[O-])c1 (stereo not given) | inconclusive [inhibitor, partial curve]
42 | CCCOC1CCCN(Cc2nc(-c3cnccn3)no2)C1 (stereo not given) | inactive
43 | CCN1CCN(Cc2ccc(NC(=O)c3cc(NC(=O)c4cc(-c5ccc(OC)cc5)n[nH]4)cc(OC)c3)cc2C(F)(F)F)CC1 | inconclusive [inhibitor, single point]
44 | Cc1ccc(-c2nc(C#N)c(N3CCC(C)CC3)o2)cc1 | inconclusive [inhibitor, partial curve]
45 | CCOc1ccc(N2C(=O)CC(SCCN)C2=O)cc1 (stereo not given) | inconclusive [inhibitor, partial curve]
